About 420 (0.12%) of roughly 360,000 compounds were called active. Inconclusive results, whose numbers are uncertain, are shown with a selection of clear calls. Cut-off read from the data, not from the text of the source: active = inhibition above about 30%; inconclusive = no clear call, values can overlap the other calls; inactive = below that.
The molecules below were run against Lethal factor (Bacillus anthracis) (UniProt P15917) (assay: anthrax lethal factor cleavage blockers – biochemical, multiplex microsphere, MLPCN library, primary screen (AID 588501; note: plate controls were buffer without enzyme for full effect and enzyme alone for no effect)). Conditions: multiplex microsphere protease cleavage assay, LF; at 10 µM; stronger effect = higher value.
UniProt P15917, sequence (P15917 whole entry, looked up): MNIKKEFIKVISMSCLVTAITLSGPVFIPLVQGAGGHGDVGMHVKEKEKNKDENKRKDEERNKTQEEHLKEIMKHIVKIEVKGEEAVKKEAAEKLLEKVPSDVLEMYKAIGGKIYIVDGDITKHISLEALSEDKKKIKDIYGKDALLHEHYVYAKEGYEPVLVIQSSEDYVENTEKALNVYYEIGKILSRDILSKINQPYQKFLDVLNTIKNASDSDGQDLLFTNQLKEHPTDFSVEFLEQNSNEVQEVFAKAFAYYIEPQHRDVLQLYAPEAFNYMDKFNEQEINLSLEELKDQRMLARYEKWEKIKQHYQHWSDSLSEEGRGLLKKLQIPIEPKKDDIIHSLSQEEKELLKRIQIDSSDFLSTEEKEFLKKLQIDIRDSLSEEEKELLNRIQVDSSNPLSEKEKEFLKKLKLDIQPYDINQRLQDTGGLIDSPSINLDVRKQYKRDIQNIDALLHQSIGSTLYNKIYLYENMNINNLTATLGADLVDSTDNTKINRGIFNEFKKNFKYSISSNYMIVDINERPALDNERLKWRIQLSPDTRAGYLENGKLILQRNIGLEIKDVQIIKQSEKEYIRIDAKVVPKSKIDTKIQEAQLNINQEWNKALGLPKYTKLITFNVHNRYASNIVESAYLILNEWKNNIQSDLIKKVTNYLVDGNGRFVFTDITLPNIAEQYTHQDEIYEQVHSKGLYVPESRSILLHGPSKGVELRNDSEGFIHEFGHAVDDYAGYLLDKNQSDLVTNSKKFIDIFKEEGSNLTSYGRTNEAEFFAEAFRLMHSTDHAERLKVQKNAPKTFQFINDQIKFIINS
With `COc1cc(C(=O)N(C)CCOc2ccc(C)cc2)ccc1OC1CCN(C(C)=O)CC1` the inhibition was active: 29.9%.
`O=C(/C=C/c1ccncc1)c1ccc(NC(=O)c2ccccc2F)cc1` was tested, and the inhibition was inactive: -0.7%.
With `O=C1NC2(c3ccccc3)NC(=O)NC2(c2ccccc2)N1` (configuration not stated) the inhibition was inactive: -0.8%.
With `O=C(Nc1cccc(-c2nnc(-c3ccccc3)o2)c1)C1CCCCC1` the inhibition was inactive: 0.4%.
For `COc1ccc(C2=NN(C(=O)CSc3nc(=O)n4ccc(C)cc4n3)C(c3ccc(C)cc3)C2)cc1` (configuration not stated), the inhibition was inconclusive: 2.2%.
In the case of `O=C(N/N=C/C(Cl)=C\c1ccccc1)c1ccco1`, the inhibition is reported as inconclusive: 8.5%.
With `COc1ccc(-c2nnc3ccc(SCC(=O)NCc4ccco4)nn23)cc1` the inhibition was inactive: 3.1%.
With `CCOC(=O)C1CCN(C(=O)Nc2ccc(OCc3ccccc3)cc2)CC1` the inhibition was active: 30.8%.
In the case of `COc1ccc(NC(=O)CCNC(=O)N2CC(=O)Nc3ccccc32)cc1`, the inhibition is reported as inactive: 1.2%.
With `O=C(NCCc1ccccc1)C(=O)NCCC1CCCCN1S(=O)(=O)c1ccccc1` (configuration not stated) the inhibition was inconclusive: -1.1%.
For `COc1cccc(NC(=O)N2CCCC2C(=O)NC2CC2)c1` (configuration not stated), the inhibition was inconclusive: 0.1%.
For `N#CCCn1nc(-c2ccccc2)cc1Nc1ccccc1NC(=O)c1cccs1`, the inhibition was inconclusive: -137%.
In the case of `CCc1nc2c(OCc3ccc(C(F)(F)F)cc3)cccn2c1N(C)C(=O)c1ccc(C)cc1`, the inhibition is reported as inactive: -2.5%.
In the case of `CC(OC(=O)Cc1ccccc1F)C(=O)Nc1ccc(Cl)cn1` (configuration not stated), the inhibition is reported as inconclusive: 1.6%.
For `COC(=O)C(OC(=O)c1ccc(OC)cc1)C(=O)OC`, the inhibition was inconclusive: -15.9%.
In the case of `Cc1onc(-c2ccccc2Cl)c1C(=O)NCCn1ccc2ccccc21`, the inhibition is reported as active: 53.9%.
With `Cc1ccc2nc3c(cc2c1)c(NC(=O)C(C)(C)C)nn3CC(C)C` the inhibition was active: 49.1%.
`O=c1c2cc(Cl)ccc2nc(-c2ccc([N+](=O)[O-])cc2)n1O` was tested, and the inhibition was inactive: 1.6%.
For `O=C(Nc1cccnc1Cl)c1ccc(=O)oc1`, the inhibition was inconclusive: 4.2%.
In the case of `CCOc1ccc(Oc2ccccc2NC(=O)C2=COCCO2)cc1`, the inhibition is reported as inconclusive: 0.3%.
For `CC1(C)CC(=O)N(c2ccccc2)C1(C)O` (configuration not stated), the inhibition was inconclusive: -2.7%.
With `COc1ccc(C(=O)SC2=NCCS2)cc1OC` the inhibition was inconclusive: 12.9%.
In the case of `CCc1nc(N2CCN(CC(=O)NCC3CCCO3)CC2)c(C#N)c2c1COC(C)(C)C2` (configuration not stated), the inhibition is reported as inconclusive: -82.2%.
For `O=C(CN1CCCCC1)N/N=C/c1ccc(Cl)cc1Cl`, the inhibition was inactive: 3.1%.
`COc1ccc(/C=C/c2ccccc2)cc1[C@H]1[C@H]2C=CC[C@@H](C)[C@@H]2C(=O)N1Cc1ccccc1` was tested, and the inhibition was inactive: -9.1%.
For `O=C(/C=C\Nc1cccc(F)c1)c1ccc2c(c1)OCO2`, the inhibition was inconclusive: -0.7%.
With `Cc1c(Cl)cccc1NC(=O)CCN1C(=O)NC(C)(C)C1=O` the inhibition was inactive: 1.1%.
For `Cc1cc(C(=O)Nc2ccc3c(c2)CCC3)ccc1[N+](=O)[O-]`, the inhibition was inconclusive: 5.9%.
With `CCOC1=C2CN(S(=O)(=O)c3ccc(C)cc3)[C@@H](c3ccc(CC)cc3)C[C@H]2[C@H]2C(=O)N(c3ccccc3)C(=O)[C@H]2C1` the inhibition was inactive: -0.4%.
In the case of `N#CC(c1ccc(Cl)cc1)c1ncc(C(F)(F)F)cc1Cl` (configuration not stated), the inhibition is reported as inconclusive: 2.2%.
In the case of `CN(/N=C/c1cccnc1)c1cnn(-c2ccc(F)c(Cl)c2)c(=O)c1Cl`, the inhibition is reported as inactive: -20.5%.
`Nc1nc(SCC(=O)c2c(N)n(C3CC3)c(=O)[nH]c2=O)n[nH]1` was tested, and the inhibition was inconclusive: -4.6%.
`Cc1cc(NC(=O)CSc2nnc(-c3ccncc3)n2C)n(-c2ccccc2)n1` was tested, and the inhibition was active: 69.9%.
For `O=C(O)c1cccc2c1NC(c1cccc([N+](=O)[O-])c1)C1CC(Sc3ccccc3[N+](=O)[O-])C(Cl)C21` (configuration not stated), the inhibition was inconclusive: -2.3%.
For `N#CC(C#N)=C1C=CC=CN1/C(=C\c1ccco1)C(=O)c1ccccc1`, the inhibition was inactive: 0.1%.
For `C/C(=N\NC(N)=S)c1ccncc1`, the inhibition was inconclusive: -30.9%.
With `NS(=O)(=O)c1ccc(NNC(=O)c2ccccc2)cc1` the inhibition was inconclusive: -13.9%.
`CN(C)CCCCOc1ccccc1-c1ccccc1` was tested, and the inhibition was inconclusive: -41.7%.
`CCC/C(C)=N\Nc1nc2c(c(=O)n(C)c(=O)n2C)n1C` was tested, and the inhibition was inconclusive: 7.7%.
In the case of `CNC(=O)C1(c2ccccc2)CCCCC1`, the inhibition is reported as inactive: 0.5%.
For `CCOC(=O)C(c1ccccc1)C(Nc1ccc(Cl)c(Cl)c1)c1ccccn1` (configuration not stated), the inhibition was inconclusive: -21.7%.
For `O=C(NC1CC1)C1CCN(C2CCN(C(=O)Cc3ccc(F)cc3)CC2)CC1`, the inhibition was inactive: 1.7%.
With `Nc1nnnn1CC(=O)N/N=C/c1ccccn1` the inhibition was inconclusive: 1.6%.
With `COC(=O)c1ccc(CSc2ncnc3c2sc2nc(N4CCOCC4)c4c(c23)CCCC4)o1` the inhibition was inconclusive: 0.6%.
With `CC(=O)OCCOc1nc(N(C)C)nc(N(C)C)n1` the inhibition was inconclusive: -22.1%.
For `Cc1cc(OC(=O)c2c(Cl)cccc2Cl)nc(C)n1`, the inhibition was inconclusive: -11.2%.
With `CC1CCCCC12NC(=O)N(CC(=O)OCc1ccccc1Cl)C2=O` (configuration not stated) the inhibition was inconclusive: -3.2%.
In the case of `O=C(c1cc2c(s1)CCCC2)N1CCN(CCO)CC1`, the inhibition is reported as inactive: 1.8%.
For `COc1ccccc1-c1nc2n(n1)C(c1cccs1)C(C(=O)Nc1cccnc1)=C(C)N2` (configuration not stated), the inhibition was inconclusive: -12.1%.
With `O=C(OCC(=O)c1c[nH]c2ccccc12)c1cccc([N+](=O)[O-])c1` the inhibition was active: 39.2%.
For `O=C(NNC(=O)c1csc(N2CCOCC2)n1)c1cccnc1`, the inhibition was inactive: -0.9%.
`CCOC(=O)C1CCCN(CC(=O)NC2=Nc3ccccc3N=C(C)C2c2ccccc2)C1` (configuration not stated) was tested, and the inhibition was inconclusive: -137%.
For `O=C1/C(=C\c2ccccn2)SC(=S)N1c1ccc(S(=O)(=O)Nc2nccs2)cc1`, the inhibition was active: 29.6%.
For `CCc1cc(C(=O)NCC(c2ccc(OC)cc2)N2CCOCC2)sc1C` (configuration not stated), the inhibition was inconclusive: 1.3%.
With `CCOc1ccc(S(=O)(=O)N2CCN(C(=O)CCOc3ccccc3C)CC2)cc1` the inhibition was inconclusive: -0.3%.
In the case of `COc1ccc(NS(=O)(=O)c2ccc(NC(=O)CCNS(=O)(=O)c3ccc(C)cc3)cc2)cc1`, the inhibition is reported as inactive: 0.3%.
With `CCOc1ccc(-c2cnc(N)n2C)cc1` the inhibition was inactive: -5.2%.

From PubChem BioAssay AID588501 (NMMLSC, 2011)
